We go through 62 sequences from the supplement of paper PMC10681739.

± gives the standard deviation of the averaged measurements. Over roughly 4,100 sequences, “arbitrary fluorescence units” has its median near 780; the highest 2% begin near 22,000. Some of the results follow.

In the assay the target is T1, ETS1 (UniProt P14921).
T1 sequence: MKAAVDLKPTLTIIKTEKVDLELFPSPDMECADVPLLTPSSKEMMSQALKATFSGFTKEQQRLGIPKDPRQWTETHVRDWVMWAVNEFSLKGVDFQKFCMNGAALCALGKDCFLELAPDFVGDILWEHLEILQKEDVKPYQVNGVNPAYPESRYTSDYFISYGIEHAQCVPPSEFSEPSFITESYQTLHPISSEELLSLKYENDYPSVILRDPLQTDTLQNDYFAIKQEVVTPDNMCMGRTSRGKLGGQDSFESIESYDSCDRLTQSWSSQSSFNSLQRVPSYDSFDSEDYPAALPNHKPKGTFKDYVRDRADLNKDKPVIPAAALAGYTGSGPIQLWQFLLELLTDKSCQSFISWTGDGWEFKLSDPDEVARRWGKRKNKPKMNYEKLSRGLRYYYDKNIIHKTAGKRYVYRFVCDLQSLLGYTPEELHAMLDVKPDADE
Description: ETS1 binding intensity (PBM fluorescence), ETS1 alone (arbitrary fluorescence units); higher = stronger binding. Particulars: ETS1 concentration 1 nM; RUNX1 concentration 0 nM. The procedure, abridged: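 Double-stranded Agilent 4 × 180k arrays held 36-bp genomic probes whose RUNX1 partner site was mutated, and these were incubated with 1 nM full-length recombinant human ETS1 in the absence of RUNX1 under standard PBM protocols. Bound protein was labelled with anti-ETS1 antibody (Cell Signaling Technology 14069) plus an Alexa488-conjugated secondary and read on a GenePix 4400A, with four spots printed per sequence. Binding level is reported as raw spot fluorescence intensity summarised over replicate spots.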
Consider CAGGGAGCGGGCGGAACCTTTCTACCGAGTCTCTAG, for which the ETS1 binding intensity is 423. Sequence TAGGTTTGGGGTAGAAGCTGCAGGAACTTCCTGTCC gave an ETS1 binding intensity of 1710.

Take TTGAGCCTAAGCACTGCACGAGCACAGGATGTGGGA: the ETS1 binding intensity was 526.

The sequence TTACACAACAGGAAACTATGTTTAGCGGCTAATCCA registered an ETS1 binding intensity of 3090. The value for AGCTTTACGGCAGTGTGCGCCCCGGAAGCCTGAAGC was 702; that for TTCAACAGGATGTGGGAACTTGACTCTCGCCGTAAA was 4800; that for CGTGGCGCTATCCCGGAGCCTGCCGTCCGGCCCTAC was 377. The value for GGCCCCAACGCTGTTAGCGCTTCCGAAAACTCCCCC was 417; that for GGCTCTGCCGTCCGCTGACAGGAAGACGCTGACGAC was 973. ATCTCAACTAGGAAATGTTTTTGTGACCAAAAAGGG had an ETS1 binding intensity of 508. For the sequence TGAACTGTGAGCGGGGCACTCTGGGAGCGGAAAAGC, the ETS1 binding intensity was found to be 338. Take ATGTTCTTTTTGGTATCGCTTCCTGTGTCCTAGCAC: the ETS1 binding intensity worked out at 3120. For AACCCGAAACCCCACGGACCAGCCGGAAGTCTTGAT, the ETS1 binding intensity is 1310.

For TAAAGAGGAAGCGGCAGCCGCGCCTGCGCCTACAGT, the ETS1 binding intensity was found to be 849. The value for CCCAGCAGAATCCGCAGCCTTCCTCCCCCACCCCTC was 391; that for GTCGCCCCCACTGCAAGTATTTCCGCTTCCCTCCGC was 3490; that for GTCTCAACGTCAAGGAGGTGTTACTTCCTCTTTTAC was 982. The value for AGAAGGCGCCGGAAGTGGTCCCTCAGAGGCGGGGTG was 11600; that for CGGTTCCGGCGCCTGAAGTTTTAGCTTCGGTGGCGG was 3620; that for TTACCTTCCTGCTGCCACCAAAGCACCAAAGCACCA was 2700. With AAACATCATAGGAAGTGGATTTTGGGGTGAGAGACA, the ETS1 binding intensity amounted to 1170 ± 210. On to AGCGCCACCCCAGTGATGCAAGTCGGAAGTTGTAGT, for which the ETS1 binding intensity is 387. In turn, GAGGGAAGTCCTCGGGCGTCTCCTAGTGGCGGCGGG came in with an ETS1 binding intensity of 358. The value for GAAGCTCTTGTAGTTCCTGGCGGCATCCTGTCCCTC was 955 ± 11. For TAAGGCAAGCACCTCCTCTCAAGACCCTTTCCGGCC, the ETS1 binding intensity came out at 602. With CCTTGTTCACATCCTTGCACTCTGAGGGGACGGGAG, the ETS1 binding intensity was 1120. In the case of CAGGTCCCCTCACAAGACTGAGATTTCCGCTCTGAT it was 1510; in that of TGGGGTTTCCTGGGGAGAAACTTAGCCCTACCTCAC, 3060. As to CCGCTGCAGCTGCGCGCTACGTCACTACGTCCGGCG, the ETS1 binding intensity amounted to 402. In turn, GTGCCTCACCGCTTCCGGCGCTGCGCGATGACGTCA showed an ETS1 binding intensity of 15700.

CTCCCGGGCCGAATCCGCGCGTTTCCGGCGCGCTCC returned an ETS1 binding intensity of 4360. In the case of AGTGGATTAGTCGTTGTTGCCAGAGGATGTGAGTTG it was 425; in that of CTGAGGAAATTGGCTCCACGATAAAGTGCTTTGGCC, 517. The value for GAGGGGTGGGCCCCAGGCGCCGGACGTGACGTAAGC was 541; that for TCAAGAAAACAGGAAACTCTCAAATCCAAGTTCTGA was 3280; that for AACATTACGGAAGTTTCTCTACCCATGAGGTGTCTC was 1250. The value for TTGCTCGGCTTCCTGGAGCTGGGGTCCGTGTGGGCT was 1420; that for CTAGGGAGAGGATGTGAGTTTGTCTCTGGGGGTGGT was 725. In turn, ACAGGCAGCTTCGGCCGCCCGGCTTCCTCTCCCGCC gave an ETS1 binding intensity of 382. CCAGTACCCCACTTCCTGACCAAACCCCAAAGGTCA showed an ETS1 binding intensity of 6550. The value for CCCTTCCTGCCCCCATGGCTCCCCTGACGTTTTTCG was 6690; that for GGCATCCCCTTACGGCCATCACTTCCTATGCCCTCA was 1460. Sequence GCTGTAGGCGGTGCAGGAGGGATCCGGAAGAGACGA had an ETS1 binding intensity of 425. The value for TGAAGGGTGCTTGCCGCCTCCCCTTCCTTCCCAGTC was 299; that for CCCCGGCAGAAACAGCACCCCACTTCCCATAGCCAC was 508; that for TAATGGGGTGACATCAGCAAGGCCAAACAGGAAGCT was 763. CCCTGGACGGGAAGCGGCGGCCAGATCCGCTAGCCC yielded an ETS1 binding intensity of 1210. The value for GGCAACCCAAGGAAGTATCTCTGAAACTACACAACA was 556; that for AAGCACCTCATCGGCAGCTCATGCACTTCCGGCGCA was 5760; that for CTGGGGTTGGGCTGTGTAGGTGCGGATTTCCTGGCT was 495. As to CAGGCCCTAGTCCACACCCTTCCTGGGGAAGAGATC, the ETS1 binding intensity came to 337. The value for CAACAAGAGGAAATCAGAAACACTGAAGCTACAGCT was 936; that for CATTGTAGGCGCTGTAGTCCGGCCGGAACCTGTTTG was 451; that for CCTGCAGCTGCAGCGGCACGCGCCGGAAGCCGGGCT was 859. In the case of CACCCTGGCCCCTCAGCCCCAGGAAAACATTCCTCA it was 408; in that of CCCTACACCCCACGATCCCCCGCGCCGTTCCGGAGG, 372; in that of GTGGCTGTCGTTGAACTGACTCTCGGGTTTCCGCTC, 606.

In the case of GCTTGTCTTCCGGTTTCGTCGCCGCCGTAGGCGCAC, the ETS1 binding intensity came out at 16700. The sequence AATGAGCCCCAGAACCCTTTTCCTTCCGGCCTGTGC yielded an ETS1 binding intensity of 1520. For the sequence AACCCCACTTCGGTGAGGCGGAAGCCTAGTGCCGCC, the ETS1 binding intensity turned out to be 405. In the case of GAGAGAGTTCCGCGTAGGGGTCGCCGCGAGTCGCAA it was 460. AAAGGGCCTGTGATAACAAAGCAATATCCTGTTGAA came in with an ETS1 binding intensity of 1350.
